Among all 150,000 compounds or so, about 540 (0.36%) showed an effect of 50% or more. The list shows a part of the results.
System: Plasmodium falciparum
Assay: Primary screen in NF54 nanoGlo assay, in single point, at 2uM, 72h; a lower Z score goes with more inhibition
Assay type: functional, Erythrocyte
Details: timepoint 72 hour

Compound	% Inhibition [%]	Z score
COc1ccc([C@H](C)NC(=O)NCc2cccc(NC(=O)c3ccco3)c2)cc1F	-5	0.43
Cc1cnc(C(=O)Nc2ccc3oc(C)nc3c2)cn1	-8	1.2
Cc1nc(-c2ccccc2)ncc1C(=O)NCCN1CCCC[C@@H]1CO	-8	1.12
Cc1ccc(C(=O)NC[C@H](C)COCc2ccccc2)c(=O)[nH]1	1	-0.19
O=C1CN(C(=O)c2ccc([C@H]3CCCOC3)cc2)c2ccccc2N1	-15	1.61
Cc1[nH]ccc1C(=O)N1CCCC(C(C)NC(=O)OC(C)(C)C)C1 (stereo not given)	-11	1.15
O=C1C(=O)N(C2CCN(C(=O)c3cnccn3)CC2)CCN1Cc1ccc(F)cc1	-7	0.93
COc1cccc(N2CCN(C(=O)c3cc4n(n3)C[C@@H](c3ccc(Cl)cc3)OC4)CC2)c1	-9	1.47
COc1ccccc1C(=O)N1CCCCC[C@@H]1CN1CCc2ccccc2C1	4	-0.62
CCN(C)C(=O)c1ccc(-c2cc3ccccc3n2C)nc1	-6	1.05
COC(=O)c1c(NC(=O)Cc2ccccc2)c2cc(NCC(C)C)cnc2n1CC(C)C	-12	1.42
O=C(CC1CCCC1)Nc1ccccc1OC[C@H]1CCCO1	-18	2.86
CCc1ccnc(CNC(=O)N2CCO[C@H](c3nc(C)cs3)C2)c1	-5	0.48
CCOc1ccc(-n2ccn3c(C[C@@H](C)CC(=O)Nc4ccc(C)c(C)c4)nnc3c2=O)cc1	-3	0.37
Cc1ccc(C(=O)N[C@H]2CCN(Cc3cccnc3)C[C@@H]2O)cc1F	-7	0.97
CCCS(=O)(=O)N1CC(Oc2ccc(-c3noc(COC)n3)cc2)C1	-14	2.73
CS(=O)(=O)c1cccc(C(=O)Nc2ncnc3sccc23)c1	-26	3.3
CC(C)c1nnc(CN(C)c2ccccc2F)o1	-1	0.08
COc1cccc(C2Nc3c(C)cc(C)cc3[C@H]3OCCC[C@@H]23)c1OC (stereo not given in full)	-10	1.67
O=C(O)c1cc(Cn2cc(Cl)cn2)cs1	-2	0.37
CC(C)CN(Cc1cccnc1)C(=O)c1cc2ncc(CCO)cn2n1	2	-0.35
CC[C@@H](c1ccccn1)N(C)Cc1cc(C(C)C)on1	-11	1.2

Compound	% Inhibition [%]	Z score
Cc1ccc([C@H]2CN(S(C)(=O)=O)C[C@@H]2N(C)C)o1	-27	5.1
NC(=O)c1c(NC(=O)C2CCCCC2)sc2c1CCC2	-14	1.74
Cc1nn(CCO)cc1CN(C)Cc1csc(-c2ccccc2)n1	-8	1.23
COC1CCCC(CC(=O)N2CCS(=O)(=O)CC2)C1 (stereo not given)	3	-0.57
CCC(CC)(CN(CC(CC)(CC)OC)C(=O)c1cccc(=O)[nH]1)OC	-9	1.6
CC[C@@H](CO)NCc1ccccc1OC(C)C	-4	0.55
Cc1ccc(-c2ccc(C(=O)NC3(C(N)=O)CCCC3)cc2)nn1	-13	1.31
CCc1ccccc1S(=O)(=O)N1CC2CC1CS2(=O)=O (stereo not given)	-14	1.67
C[C@H](NC(=O)NC(c1cccs1)c1cccs1)C(=O)N(C)C	-1	0.11
CN(C)C(=O)[C@@H]1CN(c2ncnc3[nH]ccc23)CCO1	-6	0.84
COc1ccc(CCS(=O)(=O)N2CCO[C@H](c3ccccc3)C2)cc1	-7	1.08
Cc1ccc2c(c1)c1c(n2C[C@H]2COC(C)(C)O2)C(=O)CCC1	8	-1.48
Cn1cc(CNC(=O)c2ccc(Nc3ccncc3)cc2)cn1	2	-0.41
Cc1nn(C)c(C(=O)NCCc2cnn[nH]2)c1Cl	-15	1.99
O=c1c2sccc2n(Cc2nc(-c3ccccc3)no2)c(=O)n1CCc1ccccc1	-4	0.47
O=C(C[C@@H](Cn1cnnn1)c1ccc(Cl)cc1)NCc1ccccc1F	-3	0.47
COc1ccc(CN(CCc2c[nH]c3ccccc23)C(=O)CN(CC(C)C)C(=O)Nc2ccc(F)c(Cl)c2)cc1OC	1	-0.24
Cc1cc(=O)[nH]c(-n2ncc(C(=O)Nc3ccc4c(c3)OCCO4)c2C)n1	9	-1.14
COc1ccc(C(=O)CCC(=O)N2CC[C@@](O)(c3ccccc3)C2)cc1	-17	1.58
CCc1nc(N2CCC(C(=O)NCC(C)C)CC2)c2c(C)scc2n1	-3	0.45
CN(CCC(=O)Nc1ccccc1C#N)c1ccccc1	-3	0.55
c1coc(-c2nc(Cn3ccnc3[C@H]3CCOC3)no2)c1	-15	3.1

Compound	% Inhibition [%]	Z score
O=C(NCC(=O)N1CCn2nccc2C1)c1ccccc1	-8	0.88
CCOC(=O)CN(CC(F)(F)F)C(=O)c1cc2ccccn2c1	5	-0.58
COCCOCC(=O)N1CCCCC[C@H]1c1nnc(-c2ccccc2)o1	-13	2.4
Cc1cc(C)cc(Nc2c(C(=O)N3CCC(C)CC3)cnc3nc(C)ccc23)c1	-1	0.22
CC(=O)Nc1sc2c(c1CN1CCN(C)CC1)CCCC2	-4	0.56
CCN1CC2(CCN(c3nccc(NC)n3)CC2)C[C@@H](c2ccccc2)C1=O	6	-0.88
CCOC1CC(N(C)S(=O)(=O)c2cnn(C)c2)C12CCCC2 (stereo not given)	-11	0.9
CC(=O)N(C)CC(=O)OC1CCCC(C)C1 (stereo not given)	-11	1.54
Cc1nc(O)cc(CNC(=O)CCc2scnc2C)n1	-5	0.98
Cc1c(F)cc(Cl)c2c1CCCN2C(=O)c1ccc(=O)n(C)n1	4	-0.54
CCc1nc(N)sc1C(=O)N1CCN(c2ccc(Cl)c(Cl)c2)CC1	-23	2.66
CCc1ccc(/N=C(\NCc2ccncc2)NC(=O)c2cccc(Cl)c2)cc1	-8	1.35
Cc1cnn(-c2ccncc2NC(=O)[C@H]2CCOC3(CCCC3)C2)c1	-13	1.65
Cc1c(NC(=O)CN2CCCCC2=O)cccc1-c1nncn1C	5	-0.87
CC1CN(C(=O)COCC(F)(F)F)CC(C)O1 (stereo not given)	-5	0.69
CCn1ccnc1CNCC1CCOC1c1c(C)nn(C)c1C (stereo not given)	-4	0.36
c1cncc(Cn2ncc3[nH]c(-c4ccc([C@@H]5CCCCO5)s4)nc32)c1	-21	1.88
O=C(Nc1nc(-c2ccc(S(=O)(=O)N3CCCCCC3)cc2)cs1)c1ccccc1Cl	-10	1.89
O=C1NCCCCCN(Cc2cccc(F)c2)[C@@H]2C[C@@H](C(=O)N3CCc4ccccc4C3)C[C@H]12	-2	0.29
CC(C)C(=O)N1CC(OCc2ccc(Cl)cc2)C1	1	-0.24
CC(C)OC1CCC(NC(=O)N(C)CC2CCCCC2O)CC1 (stereo not given)	-10	1.43
O=C(CCCc1cn[nH]c1)N1C[C@@H]2CC[C@H]1CN(Cc1cscn1)C2	-10	1.02

Compound	% Inhibition [%]	Z score
CC(NC(=O)C1CC=CCC1C(=O)N1CCOCC1)c1nc[nH]n1 (stereo not given)	-15	2.35
C[C@]1(O)CCN(C(=O)c2onc3c2CCCC3)C1	-8	1.1
CCn1cc(S(=O)(=O)N2C[C@H]3CN(S(=O)(=O)c4cccc(F)c4)C[C@@H](C2)O3)cn1	-2	0.41
C[C@@H](CN(C)C(=O)c1ccnnc1)Oc1ccc(Cl)c(Cl)c1	-6	1.1
Cc1nn(C(C)(C)C)cc1C(=O)N1CCC2(CCN(C)CC2)C1	-8	1.64
C[C@H](Nc1ccccn1)C(=O)NC(C)(C)C	-1	0.18
CCCc1nc(CN(C)C(=O)c2ccc3sc(N)nc3c2)no1	-10	1.95
CCc1ncc(CNC(=O)[C@H]2CCN(Cc3ccccc3)C2)o1	-4	0.68
Cn1nccc1-c1nccc(N2CCC[C@H](O)C2)n1	6	-0.76
CN1C(=O)c2ccc(-c3cnn(C)c3)cc2O[C@H]2CN(Cc3nccs3)C[C@H]21	19	-2.21
C[C@H]1CCN(CCc2ccccc2F)CCS1(=O)=O	-5	0.47
Cc1cc(C)c(CNCc2ccc(N3CCCC3=O)cc2)cc1C	-4	0.39
CN(C(=O)CCn1cnc2ccccc2c1=O)C1CCCC1	-17	2.81
CC(C)C(=O)N1CCC(NC2CC(C)(C)Cc3occc32)C1 (stereo not given)	2	-0.2
CC(C)(C)OC(=O)N1CCC(c2ccn(CC3(CC#N)CC3)n2)CC1	8	-0.97
COCCN(Cc1nc2ccc(C)cc2[nH]1)CC1CC1	-12	2.15
COc1ccc(CN2CC[C@H](CS(C)(=O)=O)C2)cc1OC1CC1	-4	0.88
CCOC(=O)C1(C[C@H]2CCCCO2)CCN(S(=O)(=O)c2ccc(C)cc2C)CC1	-33	3.58
CCCN(CCC)S(=O)(=O)c1cccs1	10	-1.83

Reference: ChEMBL document CHEMBL4888484, “Replenishing the malaria drug discovery pipeline: Screening and hit evaluation of the MMV Hit Generation Library 1 (HGL1) against asexual blood stage Plasmodium falciparum ,using a nano luciferase reporter read-out” (2022)
